Positions count from the first letter of the chain named. The list shows a part of the results.
T1: RBFOX1 RRM (Homo sapiens, UniProt Q9NWB1 109-208)
T1 sequence: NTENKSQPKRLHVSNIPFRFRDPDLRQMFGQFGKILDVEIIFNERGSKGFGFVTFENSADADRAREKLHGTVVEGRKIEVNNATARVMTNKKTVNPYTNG

B1: GUGGUUC (DNA:RNA)
RNA: GGGAGACCGGAAUUCAGAUUGUCCGUGGUUCUUAAAUCCCGUCGUAGCCACCA
DNA 1: CAATCTGAATTCCGGTCTCCC
DNA 2: TGGTGGCTACGACGGGATT
B2: ACUCGGC (DNA:RNA)
RNA: B1 RNA with G25A, U26C, G27U, G28C, U29G, U30G
DNA 1: CAATCTGAATTCCGGTCTCCC
DNA 2: TGGTGGCTACGACGGGATT
B3: UAUACGA (DNA:RNA)
RNA: GGGAGACCGGAAUUCAGAUUGUCCUAUACGAUUAAAUCCCGUCGUAGCCACCA
DNA 1: CAATCTGAATTCCGGTCTCCC
DNA 2: TGGTGGCTACGACGGGATT
B4: UUACUCA (DNA:RNA)
RNA: B1 RNA with G25U, G27A, G28C, U30C, C31A
DNA 1: CAATCTGAATTCCGGTCTCCC
DNA 2: TGGTGGCTACGACGGGATT
B5: ACCUAAA (DNA:RNA)
RNA: B3 RNA with U25A, A26C, U27C, A28U, C29A, G30A
DNA 1: CAATCTGAATTCCGGTCTCCC
DNA 2: TGGTGGCTACGACGGGATT
B6: UAUUCAC (DNA:RNA)
RNA: B3 RNA with A28U, G30A, A31C
DNA 1: CAATCTGAATTCCGGTCTCCC
DNA 2: TGGTGGCTACGACGGGATT
B7: GGAGUGC (DNA:RNA)
RNA: B1 RNA with U26G, G27A, U30G
DNA 1: CAATCTGAATTCCGGTCTCCC
DNA 2: TGGTGGCTACGACGGGATT
B8: AGGCUCG (DNA:RNA)
RNA: B1 RNA with G25A, U26G, G28C, U30C, C31G
DNA 1: CAATCTGAATTCCGGTCTCCC
DNA 2: TGGTGGCTACGACGGGATT
B9: GACCUCA (DNA:RNA)
RNA: B1 RNA with U26A, G27C, G28C, U30C, C31A
DNA 1: CAATCTGAATTCCGGTCTCCC
DNA 2: TGGTGGCTACGACGGGATT
B10: UCGCGCA (DNA:RNA)
RNA: B3 RNA with A26C, U27G, A28C, C29G, G30C
DNA 1: CAATCTGAATTCCGGTCTCCC
DNA 2: TGGTGGCTACGACGGGATT
B11: AUUCUGC (DNA:RNA)
RNA: B1 RNA with G25A, G27U, G28C, U30G
DNA 1: CAATCTGAATTCCGGTCTCCC
DNA 2: TGGTGGCTACGACGGGATT
B12: AGUAUUG (DNA:RNA)
RNA: B1 RNA with G25A, U26G, G27U, G28A, C31G
DNA 1: CAATCTGAATTCCGGTCTCCC
DNA 2: TGGTGGCTACGACGGGATT
B13: AAGUCUC (DNA:RNA)
RNA: B1 RNA with G25A, U26A, G28U, U29C
DNA 1: CAATCTGAATTCCGGTCTCCC
DNA 2: TGGTGGCTACGACGGGATT
B14: GACUUUU (DNA:RNA)
RNA: B1 RNA with U26A, G27C, G28U, C31U
DNA 1: CAATCTGAATTCCGGTCTCCC
DNA 2: TGGTGGCTACGACGGGATT
B15: GAGAUGU (DNA:RNA)
RNA: B1 RNA with U26A, G28A, U30G, C31U
DNA 1: CAATCTGAATTCCGGTCTCCC
DNA 2: TGGTGGCTACGACGGGATT
B16: AUGACAU (DNA:RNA)
RNA: B1 RNA with G25A, G28A, U29C, U30A, C31U
DNA 1: CAATCTGAATTCCGGTCTCCC
DNA 2: TGGTGGCTACGACGGGATT
B17: GUCAACG (DNA:RNA)
RNA: B1 RNA with G27C, G28A, U29A, U30C, C31G
DNA 1: CAATCTGAATTCCGGTCTCCC
DNA 2: TGGTGGCTACGACGGGATT
B18: CUAGUCA (DNA:RNA)
RNA: B1 RNA with G25C, G27A, U30C, C31A
DNA 1: CAATCTGAATTCCGGTCTCCC
DNA 2: TGGTGGCTACGACGGGATT
B19: AACAGCG (DNA:RNA)
RNA: B3 RNA with U25A, U27C, C29G, G30C, A31G
DNA 1: CAATCTGAATTCCGGTCTCCC
DNA 2: TGGTGGCTACGACGGGATT
B20: ACACAGA (DNA:RNA)
RNA: B3 RNA with U25A, A26C, U27A, A28C, C29A
DNA 1: CAATCTGAATTCCGGTCTCCC
DNA 2: TGGTGGCTACGACGGGATT
B21: UUCGUUU (DNA:RNA)
RNA: B1 RNA with G25U, G27C, C31U
DNA 1: CAATCTGAATTCCGGTCTCCC
DNA 2: TGGTGGCTACGACGGGATT
B22: UUGGUAG (DNA:RNA)
RNA: B1 RNA with G25U, U30A, C31G
DNA 1: CAATCTGAATTCCGGTCTCCC
DNA 2: TGGTGGCTACGACGGGATT
B23: UAGGGAA (DNA:RNA)
RNA: B3 RNA with U27G, A28G, C29G, G30A
DNA 1: CAATCTGAATTCCGGTCTCCC
DNA 2: TGGTGGCTACGACGGGATT
B24: CGUUCAA (DNA:RNA)
RNA: B3 RNA with U25C, A26G, A28U, G30A
DNA 1: CAATCTGAATTCCGGTCTCCC
DNA 2: TGGTGGCTACGACGGGATT
B25: GGUACUC (DNA:RNA)
RNA: B1 RNA with U26G, G27U, G28A, U29C
DNA 1: CAATCTGAATTCCGGTCTCCC
DNA 2: TGGTGGCTACGACGGGATT
B26: CUAGGCC (DNA:RNA)
RNA: B1 RNA with G25C, G27A, U29G, U30C
DNA 1: CAATCTGAATTCCGGTCTCCC
DNA 2: TGGTGGCTACGACGGGATT
B27: GAAAAGU (DNA:RNA)
RNA: B3 RNA with U25G, U27A, C29A, A31U
DNA 1: CAATCTGAATTCCGGTCTCCC
DNA 2: TGGTGGCTACGACGGGATT
B28: UGCCGCU (DNA:RNA)
RNA: B3 RNA with A26G, U27C, A28C, C29G, G30C, A31U
DNA 1: CAATCTGAATTCCGGTCTCCC
DNA 2: TGGTGGCTACGACGGGATT
B29: UACCUAU (DNA:RNA)
RNA: B3 RNA with U27C, A28C, C29U, G30A, A31U
DNA 1: CAATCTGAATTCCGGTCTCCC
DNA 2: TGGTGGCTACGACGGGATT
B30: GGAUGAG (DNA:RNA)
RNA: B1 RNA with U26G, G27A, G28U, U29G, U30A, C31G
DNA 1: CAATCTGAATTCCGGTCTCCC
DNA 2: TGGTGGCTACGACGGGATT
B31: GCUAAAG (DNA:RNA)
RNA: B3 RNA with U25G, A26C, C29A, G30A, A31G
DNA 1: CAATCTGAATTCCGGTCTCCC
DNA 2: TGGTGGCTACGACGGGATT

Molecular target: T1, RBFOX1 RRM
Experiment: EMSA; HiTS-Eq, 1 nM pool, 10 min; buffer printed only for the single-RNA assays: 10 mM Tris pH 7.5, 150 mM NaCl, 3.4 mM EDTA, 0.001% NP-40, 30 C
Conditions: tags: His6 N-terminal (pET28a); label: 5' 32P
Procedure, shortened: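 Purified RbFox RRM, wild type or mutant, was incubated for 10 min in 50 µL with 1 nM of a 5′-radiolabelled RNA pool carrying 7 randomized nucleotides, whose flanks were annealed to DNA oligonucleotides, over a series of increasing protein concentrations. Unbound RNA was resolved on 8% native PAGE, cut out, reverse-transcribed, barcoded by PCR and sequenced on an Illumina HiSeq 2500. Relative association constants were derived from changes in read counts for each RNA species versus the control reaction and normalised to the cognate motif.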

| Binder | binding signal |
| --- | --- |
| B1 | 0.0228 KA relative to UGCAUGU |
| B2 | 0.00633 KA relative to UGCAUGU |
| B3 | 0.0111 KA relative to UGCAUGU |
| B4 | 0.000229 KA relative to UGCAUGU |
| B5 | 0.000173 KA relative to UGCAUGU |
| B6 | 0.00768 KA relative to UGCAUGU |
| B7 | 0.0264 KA relative to UGCAUGU |
| B8 | 0.0238 KA relative to UGCAUGU |
| B9 | 0.00254 KA relative to UGCAUGU |
| B10 | 0.0159 KA relative to UGCAUGU |
| B11 | 0.0126 KA relative to UGCAUGU |
| B12 | 0.0121 KA relative to UGCAUGU |
| B13 | 0.00986 KA relative to UGCAUGU |
| B14 | 0.0132 KA relative to UGCAUGU |
| B15 | 0.0134 KA relative to UGCAUGU |
| B16 | 0.00405 KA relative to UGCAUGU |

| Binder | binding signal |
| --- | --- |
| B17 | 0.00876 KA relative to UGCAUGU |
| B18 | 0.00769 KA relative to UGCAUGU |
| B19 | 0.00422 KA relative to UGCAUGU |
| B20 | 0.0036 KA relative to UGCAUGU |
| B21 | 0.013 KA relative to UGCAUGU |
| B22 | 0.0237 KA relative to UGCAUGU |
| B23 | 0.00765 KA relative to UGCAUGU |
| B24 | 0.00656 KA relative to UGCAUGU |
| B25 | 0.032 KA relative to UGCAUGU |
| B26 | 0.00877 KA relative to UGCAUGU |
| B27 | 0.00662 KA relative to UGCAUGU |
| B28 | 0.0179 KA relative to UGCAUGU |
| B29 | 0.00482 KA relative to UGCAUGU |
| B30 | 0.0205 KA relative to UGCAUGU |
| B31 | 0.0137 KA relative to UGCAUGU |

Reference: publication PMC9911399, “Two distinct binding modes provide the RNA-binding protein RbFox with extraordinary sequence specificity”
